Lines with a small IC50 respond at low doses; a limit (>, <) means that the fit lies beyond the doses tested. AUC, from the same fit, is the share of area under the viability curve across the 256-fold dose range; values near 1 show little effect. For some of these results: A top dose marked as inferred is not printed in the source and was worked back from the curve model.
How the values were obtained:
Test in all cases: Viability of human cancer cell lines after 72 h of drug (GDSC screen)
Z-LLNle-CHO = compound: CCCC[C@@H](C=O)NC(=O)[C@H](CC(C)C)NC(=O)[C@H](CC(C)C)NC(=O)OCc1ccccc1 [Z-LLNle-CHO]; settings: top dose 2.56 µM; top dose inferred
Description: (§1)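 Human cancer cell lines in 384-well plates, medium with 10% serum, drug for 72 h over a 256-fold dose range (nine 2-fold or five 4-fold steps up to the top dose). Adherent lines were fixed and stained with the nucleic acid dye Syto60, suspension lines read with resazurin; signal relative to control wells, capped at 0 and 100%. One two-parameter sigmoid per drug and line, fitted in a mixed model over all curves with the slope shared within a line.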

Rapamycin = compound: CO[C@H]1C[C@@H]2CC[C@@H](C)[C@@](O)(O2)C(=O)C(=O)N2CCCC[C@H]2C(=O)O[C@H]([C@H](C)C[C@@H]2CC[C@@H](O)[C@H](OC)C2)CC(=O)[C@H](C)/C=C(\C)[C@@H](O)[C@@H](OC)C(=O)[C@H](C)C[C@H](C)/C=C/C=C/C=C/1C [Rapamycin]; settings: top dose 0.1 µM; top dose inferred
Description: as §1

IPA-3 = compound: Oc1ccc2ccccc2c1SSc1c(O)ccc2ccccc12 [IPA-3]; settings: top dose 32 µM; top dose inferred
Description: as §1

JW-7-52-1 = compound: CCC(=O)N1CCN(c2ccc(-n3c(=O)ccc4cnc5ccc(-c6cnc7ccccc7c6)cc5c43)cc2C(F)(F)F)CC1 [JW-7-52-1]; settings: top dose 1.2 µM; top dose inferred
Description: as §1

Tubastatin A = compound: CN1CCc2c(c3ccccc3n2Cc2ccc(C(=O)NO)cc2)C1 [Tubastatin A]; settings: top dose 20 µM
Description: as §1

Temozolomide = compound: Cn1nnc2c(C(N)=O)ncn2c1=O [Temozolomide]; settings: top dose 30 µM
Description: as §1

XL-880 = compound: COc1cc2c(Oc3ccc(NC(=O)C4(C(=O)Nc5ccc(F)cc5)CC4)cc3F)ccnc2cc1OCCCN1CCOCC1 [XL-880]; settings: top dose 5.12 µM; top dose inferred
Description: as §1

CI-1040 = compound: O=C(NOCC1CC1)c1ccc(F)c(F)c1Nc1ccc(I)cc1Cl [CI-1040]; settings: top dose 10 µM; top dose inferred
Description: as §1

| Cell Line | AUC (Z-LLNle-CHO) | IC50 (Z-LLNle-CHO) [nM] | AUC (Rapamycin) | IC50 (Rapamycin) [nM] | AUC (IPA-3) | IC50 (IPA-3) [µM] | AUC (JW-7-52-1) | IC50 (JW-7-52-1) [nM] | AUC (Tubastatin A) | IC50 (Tubastatin A) [µM] | AUC (Temozolomide) | IC50 (Temozolomide) [µM] | AUC (XL-880) | IC50 (XL-880) [nM] | AUC (CI-1040) | IC50 (CI-1040) [µM] |
| --- | --- | --- | --- | --- | --- | --- | --- | --- | --- | --- | --- | --- | --- | --- | --- | --- |
| ST486 (Burkitt lymphoma, suspension) | 0.777 | 913 | 0.882 | 85 | 0.638 | 4.58 | 0.571 | 115 | 0.75 | 5.89 | 0.982 | > 30 | 0.436 | 218 | 0.873 | 7.77 |
| MZ2-MEL (melanoma, adherent) | 0.749 | 956 | 0.822 | 72.1 | 0.907 | > 32 | 0.354 | 27.4 | 0.977 | > 20 | 0.972 | > 30 | 0.703 | 1330 | 0.546 | 0.851 |
| NCI-H1581 (large cell lung carcinoma, semi-adherent) | 0.916 | > 2560 | 0.906 | > 100 | 0.988 | > 32 | 0.704 | 266 | 0.933 | > 20 | 0.972 | > 30 | 0.719 | 1260 | 0.859 | 7.27 |
| SK-N-FI (neuroblastoma, adherent) | 0.886 | > 2560 | 0.963 | > 100 | 0.989 | > 32 | 0.868 | 1080 | 0.986 | > 20 | 0.979 | > 30 | 0.608 | 633 | 0.845 | 7.12 |
| CMK (acute myeloid leukaemia, suspension) | 0.773 | 849 | 0.824 | 47.8 | 0.579 | 3.17 | 0.196 | 11.4 | 0.788 | 7.33 | 0.979 | > 30 | 0.686 | 967 | 0.944 | > 10 |
| NCI-H526 (small cell lung carcinoma, suspension) | 0.987 | > 2560 | 0.859 | 77.5 | 0.982 | > 32 | 0.86 | 940 | 0.902 | > 20 | 0.988 | > 30 | 0.701 | 1140 | 0.987 | > 10 |
| ROS-50 (B-cell leukaemia, suspension) | 0.898 | > 2560 | 0.822 | 80.9 | 0.887 | > 32 | 0.682 | 282 | 0.942 | > 20 | 0.972 | > 30 | 0.736 | 1850 | 0.971 | > 10 |
| L-540 (Hodgkin lymphoma, suspension) | 0.682 | 485 | 0.87 | 76.3 | 0.827 | 16.7 | 0.728 | 305 | 0.978 | > 20 | 0.734 | 7.97 | 0.81 | 2340 | 0.976 | > 10 |
| MOLM-13 (acute myeloid leukaemia, suspension) | 0.775 | 949 | 0.764 | 34.2 | 0.862 | 24.6 | 0.373 | 34.3 | 0.716 | 4.87 | 0.979 | > 30 | 0.029 | < 20 | 0.907 | > 10 |
| NCI-H2135 (non-small cell lung carcinoma, adherent) | 0.89 | > 2560 | 0.981 | > 100 | 0.795 | 14.4 | 0.679 | 233 | 0.901 | > 20 | 0.989 | > 30 | 0.674 | 961 | 0.991 | > 10 |
| NCI-H187 (small cell lung carcinoma, suspension) | 0.988 | > 2560 | 0.922 | > 100 | 0.983 | > 32 | 0.727 | 353 | 0.879 | > 20 | 0.981 | > 30 | 0.753 | 1840 | 0.975 | > 10 |
| SU-DHL-4 (B-cell lymphoma, suspension) | 0.804 | 885 | 0.114 | 0.678 | 0.633 | 4.2 | 0.159 | 10.9 | 0.947 | 18.9 | 0.996 | > 30 | 0.599 | 553 | 0.997 | > 10 |
| AM-38 (glioma, semi-adherent) | 0.978 | > 2560 | 0.929 | > 100 | 0.748 | 10.5 | 0.915 | > 1200 | 0.863 | 17.8 | 0.979 | > 30 | 0.598 | 597 | 0.872 | 9.86 |
| BC-1 (B-cell lymphoma, suspension) | 0.851 | 1530 | 0.742 | 27.1 | 0.939 | > 32 | 0.931 | > 1200 | 0.914 | > 20 | 0.855 | 18.6 | 0.646 | 759 | 0.936 | > 10 |
| JSC-1 (B-cell lymphoma, suspension) | 0.744 | 793 | 0.737 | 29.4 | 0.644 | 4.99 | 0.477 | 64.9 | 0.753 | 6.6 | 0.905 | > 30 | 0.601 | 605 | 0.806 | 5.03 |
| HCC1187 (breast, suspension) | 0.756 | 836 | 0.86 | 77.5 | 0.922 | > 32 | 0.769 | 431 | 0.977 | > 20 | 0.96 | > 30 | 0.645 | 789 | 0.937 | > 10 |

| Cell Line | AUC (Z-LLNle-CHO) | IC50 (Z-LLNle-CHO) [nM] | AUC (Rapamycin) | IC50 (Rapamycin) [nM] | AUC (IPA-3) | IC50 (IPA-3) [µM] | AUC (JW-7-52-1) | IC50 (JW-7-52-1) [nM] | AUC (Tubastatin A) | IC50 (Tubastatin A) [µM] | AUC (Temozolomide) | IC50 (Temozolomide) [µM] | AUC (XL-880) | IC50 (XL-880) [nM] | AUC (CI-1040) | IC50 (CI-1040) [µM] |
| --- | --- | --- | --- | --- | --- | --- | --- | --- | --- | --- | --- | --- | --- | --- | --- | --- |
| D-502MG (glioma, adherent) | 0.972 | > 2560 | 0.955 | > 100 | 0.972 | > 32 | 0.959 | > 1200 | 0.966 | > 20 | 0.974 | > 30 | 0.597 | 686 | 0.834 | > 10 |
| BE2-M17 (neuroblastoma, adherent) | 0.861 | 2270 | 0.944 | > 100 | 0.854 | 26.5 | 0.815 | 683 | 0.975 | > 20 | 0.985 | > 30 | 0.807 | 2720 | 0.748 | 3.3 |
| BV-173 (chronic myeloid leukaemia, suspension) | 0.814 | 1190 | 0.809 | 44.8 | 0.833 | 17.3 | 0.338 | 28.2 | 0.815 | 9.35 | 0.976 | > 30 | 0.457 | 247 | 0.6 | 1.13 |
| NCI-H1092 (small cell lung carcinoma, suspension) | 0.85 | 1960 | 0.975 | > 100 | 0.977 | > 32 | 0.876 | > 1200 | 0.977 | > 20 | 0.984 | > 30 | 0.762 | 1840 | 0.973 | > 10 |
| DB (B-cell lymphoma, suspension) | 0.782 | 1220 | 0.811 | 61.6 | 0.753 | 11.9 | 0.711 | 322 | 0.829 | 14.7 | 0.901 | > 30 | 0.685 | 1130 | 0.979 | > 10 |
| MC116 (B-cell lymphoma, suspension) | 0.812 | 906 | 0.151 | 0.892 | 0.988 | > 32 | 0.326 | 28.5 | 0.946 | 16.3 | 0.999 | > 30 | 0.707 | 1010 | 0.943 | 7.96 |
| COR-L88 (small cell lung carcinoma, adherent) | 0.98 | > 2560 | 0.985 | > 100 | 0.986 | > 32 | 0.82 | 862 | 0.911 | > 20 | 0.974 | > 30 | 0.756 | 2050 | 0.97 | > 10 |
| SU-DHL-6 (B-cell lymphoma, suspension) | 0.726 | 572 | 0.17 | 0.928 | 0.985 | > 32 | 0.157 | 10.3 | 0.827 | 8.25 | 0.993 | > 30 | 0.539 | 398 | 0.845 | 4.62 |
| BB49-HNC (head and neck, adherent) | 0.789 | 1680 | 0.928 | > 100 | 0.82 | 29 | 0.572 | 128 | 0.969 | > 20 | 0.968 | > 30 | 0.726 | 1850 | 0.786 | 6.37 |
| LU-165 (small cell lung carcinoma, suspension) | 0.947 | > 2560 | 0.969 | > 100 | 0.987 | > 32 | 0.831 | 889 | 0.951 | > 20 | 0.987 | > 30 | 0.749 | 1840 | 0.988 | > 10 |
| D-283MED (medulloblastoma, adherent) | 0.957 | > 2560 | 0.955 | > 100 | 0.984 | > 32 | 0.9 | > 1200 | 0.991 | > 20 | 0.989 | > 30 | 0.883 | 4630 | 0.963 | > 10 |
| HH (T-cell leukaemia, suspension) | 0.692 | 666 | 0.542 | 8.45 | 0.705 | 9.28 | 0.566 | 120 | 0.728 | 7.02 | 0.891 | > 30 | 0.645 | 923 | 0.904 | > 10 |
| A4-Fuk (B-cell lymphoma, suspension) | 0.729 | 741 | 0.573 | 10 | 0.723 | 8.87 | 0.288 | 18.4 | 0.982 | > 20 | 0.887 | > 30 | 0.821 | 3130 | 0.782 | 4.37 |
| COR-L279 (small cell lung carcinoma, suspension) | 0.939 | > 2560 | 0.762 | 32.2 | 0.991 | > 32 | 0.568 | 112 | 0.827 | 10.5 | 0.978 | > 30 | 0.605 | 601 | 0.975 | > 10 |
| P32-ISH (Burkitt lymphoma, suspension) | 0.799 | 893 | 0.883 | 62.1 | 0.612 | 3.74 | 0.527 | 87.3 | 0.793 | 6.73 | 0.995 | > 30 | 0.387 | 170 | 0.953 | > 10 |
